Experimental data as given in paper PMC4336329 (PLoS ONE, 2015).
Hit rate of the full screen: of about 310,000 compounds, about 14,000 (4.5%) showed an effect of 50% or more. The effect is printed as a negative number. This is one part of the list.

These compounds were tested against human ether-à-go-go-related gene (hERG) potassium channel (human, UniProt Q12809) (assay: primary screen, population patch clamp on CHO cells stably expressing hERG).
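Note: peak tail current of the secondary pulse compared with the same well before compound.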

human ether-à-go-go-related gene (hERG) potassium channel, sequence (Q12809 whole entry, looked up): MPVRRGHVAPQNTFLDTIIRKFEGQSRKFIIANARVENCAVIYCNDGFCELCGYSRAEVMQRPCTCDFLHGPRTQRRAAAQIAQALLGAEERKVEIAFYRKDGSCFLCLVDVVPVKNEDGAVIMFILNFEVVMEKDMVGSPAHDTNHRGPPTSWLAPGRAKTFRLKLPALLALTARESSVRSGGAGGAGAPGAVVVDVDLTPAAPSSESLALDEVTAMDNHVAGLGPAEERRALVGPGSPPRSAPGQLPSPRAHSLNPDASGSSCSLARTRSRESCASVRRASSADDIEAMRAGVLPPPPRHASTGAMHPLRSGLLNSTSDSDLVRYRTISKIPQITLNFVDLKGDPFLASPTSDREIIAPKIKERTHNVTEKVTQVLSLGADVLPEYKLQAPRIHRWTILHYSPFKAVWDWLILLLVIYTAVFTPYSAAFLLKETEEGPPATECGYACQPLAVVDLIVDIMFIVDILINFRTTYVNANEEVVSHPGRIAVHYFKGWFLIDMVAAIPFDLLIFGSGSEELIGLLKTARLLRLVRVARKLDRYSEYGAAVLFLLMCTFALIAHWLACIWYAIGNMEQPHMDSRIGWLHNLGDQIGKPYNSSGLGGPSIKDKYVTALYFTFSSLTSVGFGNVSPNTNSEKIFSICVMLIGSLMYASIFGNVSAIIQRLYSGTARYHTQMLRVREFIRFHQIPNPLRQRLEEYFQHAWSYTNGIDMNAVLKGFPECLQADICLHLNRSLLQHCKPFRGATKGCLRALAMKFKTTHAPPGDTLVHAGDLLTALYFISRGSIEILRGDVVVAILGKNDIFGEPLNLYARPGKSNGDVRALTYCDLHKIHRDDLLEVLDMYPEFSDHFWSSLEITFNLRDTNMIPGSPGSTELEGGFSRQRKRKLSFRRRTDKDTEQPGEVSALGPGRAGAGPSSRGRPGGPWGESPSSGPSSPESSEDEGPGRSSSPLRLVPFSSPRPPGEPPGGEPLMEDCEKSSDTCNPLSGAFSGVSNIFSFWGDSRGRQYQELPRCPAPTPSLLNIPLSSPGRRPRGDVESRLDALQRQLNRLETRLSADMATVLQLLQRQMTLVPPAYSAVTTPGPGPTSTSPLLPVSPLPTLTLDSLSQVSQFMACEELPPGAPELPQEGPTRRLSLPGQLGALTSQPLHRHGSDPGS

| SMILES | hERG current change (%, negative = inhibition) at 10uM [%] |
| --- | --- |
| NC1=NC(=O)/C(=C/c2ccccc2OS(=O)(=O)c2ccccc2)S1 | 5.2 |
| Cc1ccccc1NC(=O)Cc1nnc(NC(=O)Nc2ccccc2F)s1 | 23.1 |
| Cn1cnnc1SCC(=O)Nc1ccc(F)cc1F | 34.2 |
| CCc1ccccc1NC(=O)CN(C1CCCCC1)S(C)(=O)=O | 4.29 |
| CCOC(=O)C(O)(CCC(O)(C(=O)OCC)C(=O)OCC)C(=O)OCC | 5.85 |
| Cc1cccc(-n2ncc3c2CCCC3NC(=O)CCc2ccncc2)c1C (stereo not drawn) | 4.95 |
| CNC(=S)n1cnc(N)n1 | 8.75 |
| Cc1ccc(Nc2nc(-c3ccc(O)cc3O)cs2)nc1 | 11.1 |
| O=C(CSc1nncs1)NCc1ccc(F)cc1 | 18.9 |
| Cn1c(CCCNC(=O)c2ccccc2)nc2ccccc21 | -5.7 |
| Cc1ccc(S(=O)(=O)N2CCCCC2C(=O)N2CCN(c3ccccc3F)CC2)cc1 (stereo not drawn) | 15.6 |
| Cc1cnc(NC(=O)C2=C(O)c3ccccc3S(=O)(=O)N2C)s1 | 3.69 |
| Cc1ccc(C(C(=O)NCc2ccco2)N(Cc2ccco2)C(=O)CNC(=O)c2ccco2)cc1 (stereo not drawn) | -7.59 |
| OCCC1CN(C2CCSCC2)CCN1C1CCCC1 (stereo not drawn) | 3.76 |
| Cc1cccc(C)c1NC(=O)CSc1nc2[nH]c(=O)cc(O)c2s1 | -4.15 |
| Cc1cc(C)[n+]2[nH]c(N)c(N=Nc3ccccc3)c2n1.[Cl-] | -19.6 |
| CC(=O)c1cccc(NC(=O)CCS(=O)(=O)c2cc3c(cc2C)NC(=O)CO3)c1 | 1.62 |
| CCN(C(=O)CCN1C(=O)/C(=C/c2ccccc2)SC1=S)C1CCS(=O)(=O)C1 (stereo not drawn) | -13.3 |
| CCOC(=O)C(=CNc1ccc(O)c(C(=O)OC)c1)C(=O)OCC | 6.07 |
| C=CCN1/C(=C(\C#N)C2=NS(=O)(=O)c3ccccc32)N(C)c2ccccc21 | -23.2 |
| COc1ccc(CCNC(=O)CN2C(=O)C(=O)N(C3CCCC3)C2=O)cc1OC | 15.1 |
| CCC(=O)Nc1ccc2c(c1)N(C(C)=O)c1ccccc1CC2 | 16.1 |

| SMILES | hERG current change (%, negative = inhibition) at 10uM [%] |
| --- | --- |
| C[C@H](NC(=O)C1CC(=O)N(c2ccc3c(c2)OCCO3)C1)C(=O)N1CCCCC1 (stereo partly drawn) | 14 |
| CC(C)(C)c1nc(NCC2CCCO2)c2nnn(Cc3ccccc3)c2n1 (stereo not drawn) | 14.5 |
| CN(c1ccc(OCC(=O)OCC(=O)Nc2ccc(Br)cc2)cc1)S(=O)(=O)c1cccs1 | -0.388 |
| CN1CCN(C(=S)NC(=O)c2ccccc2Cl)CC1 | 17.9 |
| CSc1cccc(N2CC(C(=O)N(CC(C)C)c3c(N)n(Cc4ccccc4)c(=O)[nH]c3=O)CC2=O)c1 (stereo not drawn) | -12.6 |
| CCCSc1nsc(NC(=O)CC)n1 | -30.5 |
| CCOC(=O)COc1c(-c2ccc(OC)cc2)oc2ccccc2c1=O | 3.73 |
| Cc1ccccc1N(CC(=O)NC(C)(C)C)C(=O)CCC(=O)Nc1nccs1 | 1.09 |
| Cc1ccccc1OCC(=O)Nc1ccc([N+](=O)[O-])cc1 | 4.97 |
| Cc1cc(C)nc(NC2=NCC(=O)N2CCc2c[nH]c3ccccc23)n1 | -2.13 |
| O=C(Nc1cc(NC(=O)c2ccccc2F)ccc1Cl)c1ccccc1 | 15.4 |
| CC(C)C(C(=O)O)N1C(=O)/C(=C/c2cccn2C)SC1=S (stereo not drawn) | -0.129 |
| O=C(NCC1CCCN(C(=O)c2cscn2)C1)c1ccc(-c2ccccc2)cc1 (stereo not drawn) | -15.1 |
| CC1CCCC(C)N1CCNC(=O)C1CCN(S(=O)(=O)N2CCCCC2)CC1 (stereo not drawn) | -12.2 |
| Cn1c(C(=O)O)cnc1Sc1ncc(C(F)(F)F)cc1Cl | 18.9 |
| Cc1ccccc1OCCC(=O)OCC(=O)N1c2ccccc2NC(=O)C1(C)C | -3.06 |
| C[C@@H]1O[C@@H](O[C@@H]2C(=O)c3c(O)cc(O)cc3O[C@H]2c2ccc(O)c(O)c2)[C@H](O)[C@H](O)[C@H]1O | 16.3 |
| Cc1cccc(CN2CCCC(C(=O)N3CCc4ccccc4C3)C2)c1.O=C(O)C(=O)O (stereo not drawn) | -51.3 |
| CSC(=S)NCc1cccnc1 | 18.5 |
| Cn1c(=O)oc2cc(S(=O)(=O)N3CCC4(CC3)OCCO4)ccc21 | 7.55 |
| CCc1nc2nc(C)c(NS(=O)(=O)c3ccc(F)cc3)c(=O)n2[nH]1 | 22.9 |
| CCn1c(SCC(=O)Nc2ccc3c(c2)OCCO3)nc2c(c1=O)SC(C)C2 (stereo not drawn) | -4.64 |

| SMILES | hERG current change (%, negative = inhibition) at 10uM [%] |
| --- | --- |
| CC(=O)Nn1c(-c2ccccc2)cc2ccccc21 | 3.97 |
| COc1ccc(C(=O)C23CC4CC(C2)CC(C(=O)c2ccc(OC)cc2)(C4)C3)cc1 | -17.9 |
| CC(=O)Nc1ccc(-c2csc(NC(=O)C3CCN(S(=O)(=O)c4cccs4)CC3)n2)cc1 | -2.9 |
| COC(=O)c1cc(S(=O)(=O)Nc2cccc(-c3cnco3)c2)oc1C | 9.51 |
| CCOc1cccc(=O)c2c(C)n(Cc3ccco3)c(C)c12 | -11.5 |
| CN1CCN(c2ccccc2NC(=O)COc2ccc(C3CCCCC3)cc2)CC1 | 16.8 |
| COc1cccc(NC(=O)C2CCC(CNS(=O)(=O)c3cccc4cccnc34)CC2)c1 (stereo not drawn) | 9.58 |
| CC(=O)Nc1ccc2nc(-c3ccncc3)[nH]c2c1 | 13.6 |
| O=C(NCc1ccccn1)c1ccc(/C=N/O)nc1 | 7.51 |
| CCOc1ccc(CN2CCN(Cc3cccc4nonc34)CC2CCO)cc1 (stereo not drawn) | -77.1 |
| CCN(CC)CCn1c(SCC(=O)NCCC2=CCCCC2)nc2c(sc3ccccc32)c1=O | 35.5 |
| Cc1ccc(-n2c([S-])c(C(=O)Nc3ccc(OC(F)F)cc3)[n+]3ccc(C(=O)NCCO)cc23)cc1C | 23.5 |
| COC(=O)C1=C(c2ccc(OC)c(OC)c2)C[C@@H]2CC[C@H]1N2C(=O)N1CCc2cc(OC)c(OC)cc2C1 | -0.359 |
| CC(=O)Nc1ccc(S(=O)(=O)NNC(=O)c2cc3c4ccccc4n(C)c3s2)cc1 | 8.01 |
| Cc1sc2ncnc(N3CCC(C(=O)NNC(=O)COc4ccc(Br)cc4)CC3)c2c1C | -68.5 |
| COC(=O)c1ccc(CN2CCC(Oc3cccc(C(=O)N4CCOCC4)c3)CC2)cc1 | -22.7 |
| COC(=O)c1cc2occc2n1CC(=O)Nc1cc(OC)cc(OC)c1 | -10.6 |
| Cc1ccc2nc(CCc3nc4ccc(C)cc4[nH]3)[nH]c2c1.Cl | -33.4 |
| C=C(C)COc1ccc(-c2ncnc(C(F)(F)F)c2-c2ccccc2)c(O)c1 | 8.71 |
| N#CCCC(CCC#N)C1=NCCc2ccccc21 | 27.8 |
| O=C(Cc1cccc(F)c1F)NC1CCCN(Cc2ccc(Cl)cc2)C1 (stereo not drawn) | -21.7 |
| COc1ccc(NS(=O)(=O)c2ccc3c(c2)N(C(C)=O)CCO3)c(OC)c1 | 3.3 |

| SMILES | hERG current change (%, negative = inhibition) at 10uM [%] |
| --- | --- |
| O=C(NCc1ccncc1)c1cc(S(=O)(=O)N2CCOCC2)c(Cl)cc1Cl | -13.3 |
| O=C(NCC(c1ccco1)N1CCc2ccccc21)c1ccccc1 (stereo not drawn) | -3.78 |
| CC1(c2ccccn2)Nc2ccccc2-c2nc3ccccc3n21 (stereo not drawn) | -4.59 |
| CCc1ccc(CN2CCC(C(=O)Nc3ccc(Oc4ccccc4)nc3)CC2)o1 | -58.9 |
| CCCCNc1nnc(Cc2ccc(Cl)cc2)c(=O)[nH]1 | 11.4 |
| C=CCc1cc(OC)ccc1OCCON1C(=O)CCC1=O | -1.77 |
| N#Cc1nc(-c2ccco2)oc1N1CCCC1 | -11.1 |
| O=C(COc1ccc(S(=O)(=O)N2CCCC2)cc1)N1CCCC1 | 1.33 |
| CCOC(=O)c1c(C=O)c2sc(C)cc2n1C | 5.67 |
| O=C(NCc1ccccc1)C1CCN(S(=O)(=O)c2ccc(Cl)cc2)CC1 | 3.16 |
| Cc1ccc(CNC(=O)CCn2cc(-c3ccc(C)cc3)nc2-c2ccncc2)cc1 | -45.1 |
| c1ccc2[nH]c(-c3ccc4c(c3)OCO4)nc2c1 | 2.53 |
| CCOC(=O)c1c(-c2ccccc2)csc1NC(=O)C(C)NCc1ccco1.O=C(O)C(=O)O (stereo not drawn) | -4.22 |
| COc1cccc(NC(=O)Cc2c(O)c3ccccc3[nH]c2=O)c1 | 10.8 |
| COc1ccc(C(c2nnnn2CCc2ccccc2)N2CCN(C3CCCC3)CC2)cc1.Cl (stereo not drawn) | -68 |
| COc1cc2cc(C(=O)N3CCOCC3)cc(-c3ccc(C)cc3)c2cc1OC | -8.61 |
| CCn1c(SCc2ccccc2)nc2c1c(=O)[nH]c(=O)n2C | -2.9 |
| COc1ccc(-c2nonc2NC(=O)c2ccco2)cc1OC | 10.4 |
| O=C(N/N=C/C(Br)=C/c1ccccc1)c1ccccc1F | -38.5 |
| CCc1ccc(C2c3[nH]c4ccccc4c3CCN2C(=O)c2cc(C)nn2C)cc1 (stereo not drawn) | -2.58 |
| Cc1ccccc1OCCSc1nnc(-c2ccncc2)n1C | -30.8 |
